# Source: PubChem BioAssay (NCATS)
# Inconclusive means that the source gave no clear call. Such entries were picked first, then a sample of the others. Potencies beside an inconclusive call are fits to weak or partial responses and may not hold up. Active and inactive are the calls of the source. Calls come from the whole dose curve; as a rule, active = well fitted curve in the direction sought with a large enough effect; inconclusive = small, poorly fitted or top-dose-only effect, or another doubt; inactive = no such curve, though single readings can be large; an effect the other way counts as inactive or inconclusive.
# What was measured:
# [1] = target: Rap guanine nucleotide exchange factor 3 (Homo sapiens) (UniProt O95398); assay: Confirmatory qHTS for antagonist of cAMP-regulated guanine nucleotide exchange factor 3 (EPAC1) (AID 1645880); details: EPAC1 Rap1B-BODIPY-GDP exchange, fluorescence; activity, negative = inhibition: at 115 µM (top of the series); note: nearly all actives have a fitted effect of over 55% in size;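 for activity, negative = inhibition: plate controls were DMSO only for no effect and full effect of the ATA control for full effect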
# UniProt O95398, sequence (O95398 whole entry, looked up): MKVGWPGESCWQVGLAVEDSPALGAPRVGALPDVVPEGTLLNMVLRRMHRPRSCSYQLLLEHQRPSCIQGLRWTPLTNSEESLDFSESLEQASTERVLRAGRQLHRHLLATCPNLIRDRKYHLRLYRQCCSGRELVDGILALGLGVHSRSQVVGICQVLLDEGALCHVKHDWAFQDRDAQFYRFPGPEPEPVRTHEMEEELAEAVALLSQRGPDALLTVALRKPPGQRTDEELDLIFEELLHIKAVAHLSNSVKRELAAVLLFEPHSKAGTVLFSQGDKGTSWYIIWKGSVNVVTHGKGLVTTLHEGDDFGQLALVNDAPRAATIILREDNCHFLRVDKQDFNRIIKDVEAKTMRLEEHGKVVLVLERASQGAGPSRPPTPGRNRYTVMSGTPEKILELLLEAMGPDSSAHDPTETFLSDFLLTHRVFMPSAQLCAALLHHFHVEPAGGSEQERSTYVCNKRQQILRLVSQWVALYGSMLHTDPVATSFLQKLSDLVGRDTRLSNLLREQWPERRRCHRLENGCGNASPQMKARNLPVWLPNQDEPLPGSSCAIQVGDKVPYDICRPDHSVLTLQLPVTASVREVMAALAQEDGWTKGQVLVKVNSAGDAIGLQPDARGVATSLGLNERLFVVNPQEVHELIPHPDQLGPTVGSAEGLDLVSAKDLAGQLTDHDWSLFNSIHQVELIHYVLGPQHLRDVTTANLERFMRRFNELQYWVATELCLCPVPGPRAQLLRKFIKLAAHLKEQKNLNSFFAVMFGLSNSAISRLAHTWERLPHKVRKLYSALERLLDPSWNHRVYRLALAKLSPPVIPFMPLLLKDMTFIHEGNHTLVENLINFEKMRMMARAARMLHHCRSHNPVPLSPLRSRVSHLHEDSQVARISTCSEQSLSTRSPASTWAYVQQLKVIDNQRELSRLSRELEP
# Procedure, shortened: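 Nucleotide exchange uses 100 nM EPAC1, 250 nM RAP1B-BODIPY-GDP and 50 uM GDP, with compounds in a concentration-titration series. After 5 min at room temperature, fluorescence (480 nm ex/540 nm em) is read every 5 min for 30 min. Data are normalized to control ATA and DMSO.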
# [2] = target: Rap guanine nucleotide exchange factor 4 (Homo sapiens) (UniProt Q8WZA2); assay: Confirmatory qHTS for antagonist of cAMP-regulated guanine nucleotide exchange factor 4 (EPAC2) (AID 1645885); details: EPAC2 Rap1B-BODIPY-GDP exchange fluorescence, biochemical; activity change, negative = inhibition: at 12.7 µM (top of the series) unless noted; series mostly up to 114 µM; note: nearly all actives have a fitted effect of over 25% in size; for activity change, negative = inhibition: % is set by controls: 0 for no effect and ±100 for the full control effect
# UniProt Q8WZA2, sequence (Q8WZA2 whole entry, looked up): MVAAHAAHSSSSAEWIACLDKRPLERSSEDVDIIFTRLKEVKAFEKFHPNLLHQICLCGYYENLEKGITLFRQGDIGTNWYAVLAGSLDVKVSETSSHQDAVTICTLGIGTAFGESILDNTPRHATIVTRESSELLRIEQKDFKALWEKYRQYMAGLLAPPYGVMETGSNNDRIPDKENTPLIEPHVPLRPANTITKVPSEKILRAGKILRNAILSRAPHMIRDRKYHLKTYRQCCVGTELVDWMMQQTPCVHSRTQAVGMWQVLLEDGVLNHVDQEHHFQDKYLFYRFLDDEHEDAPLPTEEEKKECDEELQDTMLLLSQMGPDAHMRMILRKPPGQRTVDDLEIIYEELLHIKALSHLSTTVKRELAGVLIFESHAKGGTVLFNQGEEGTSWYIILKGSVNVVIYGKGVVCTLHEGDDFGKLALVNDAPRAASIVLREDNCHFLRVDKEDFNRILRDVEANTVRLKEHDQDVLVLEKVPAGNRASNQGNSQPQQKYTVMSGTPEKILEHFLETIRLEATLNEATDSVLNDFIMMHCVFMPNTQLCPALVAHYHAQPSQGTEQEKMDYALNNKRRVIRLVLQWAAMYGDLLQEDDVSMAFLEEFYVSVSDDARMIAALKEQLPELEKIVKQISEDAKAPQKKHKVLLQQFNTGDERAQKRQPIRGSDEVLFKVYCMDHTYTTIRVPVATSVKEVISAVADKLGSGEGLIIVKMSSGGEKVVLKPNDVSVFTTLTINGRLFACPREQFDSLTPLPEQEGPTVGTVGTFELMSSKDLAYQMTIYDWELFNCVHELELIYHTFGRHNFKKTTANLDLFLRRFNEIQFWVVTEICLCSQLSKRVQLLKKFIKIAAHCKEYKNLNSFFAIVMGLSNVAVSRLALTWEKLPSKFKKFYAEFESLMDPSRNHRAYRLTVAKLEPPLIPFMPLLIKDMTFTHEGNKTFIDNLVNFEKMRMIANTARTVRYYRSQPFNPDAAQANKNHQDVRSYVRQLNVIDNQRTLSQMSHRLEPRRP
# [3] = target: Rap guanine nucleotide exchange factor 3 (Homo sapiens) (UniProt O95398); assay: Counterscreen qHTS for agonist of cAMP-regulated guanine nucleotide exchange factor 3 (EPAC1) (AID 1645889); details: EPAC1 Rap1B-BODIPY-GDP exchange, fluorescence; activation: at 154 µM (top of the series) unless noted; note: nearly all actives have a fitted effect of over 40% in size; for activation: % of control where 0% means no effect
# Procedure, shortened: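 Rap1B-BODIPY-GDP 250 nM + GDP 50 uM; cpds 7-pt, final 9.74 nM–152 uM (activator mode) or from 7.32 nM upwards (inhibitor mode); RT; FI 480/540 nm at 5 and 30 min, then ± cAMP, reread.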
# Potency is the fitted concentration of half-maximal effect; tags give direction and shape of the fitted curve.
Compound,Potency [1],Potency [2],Potency [3],activation [3]
C=CCOc1ccc(Br)cc1/C=C1/SC(=Nc2ccc(C(=O)O)cc2)NC1=O,active: 30.1 µM,"inconclusive: 95.3 µM [inhibitor, partial curve, poor fit]","inconclusive: 2.51 µM [activator, full curve]",–
CCOC(=O)c1c(-c2ccccc2)oc2ccc(OCC)cc12,inactive,"inconclusive: 21.3 µM [inhibitor, full curve]",inactive,–
O=C(Nc1sc2c(c1C(=O)O)CCCC2)c1ccc(Cl)cc1,"inconclusive: 56.2 µM [inhibitor, partial curve, poor fit]",inactive,–,inconclusive: 36.5% [activator] [at 30.8 µM]
C=CCOc1ccc(/C=C2\SC(=S)N(NS(=O)(=O)c3ccccc3)C2=O)cc1,active: 47.8 µM,active: 42.6 µM,inactive,–
COc1ccc(-n2c(NC(=O)c3ccco3)c(C#N)c3nc4ccccc4nc32)cc1,"inconclusive: 33.8 µM [inhibitor, partial curve]",inactive,–,inconclusive: 24% [activator]
Clc1ccc(CSc2nncn3c2cc2occc23)cc1,active: 75.7 µM,inactive,"inconclusive: 17.8 µM [activator, partial curve, poor fit]",–
Cc1ccc(CN(Cc2ccco2)C(=O)c2ccccc2Br)o1,"inconclusive: 95.3 µM [inhibitor, partial curve, poor fit]","inconclusive: 0.675 µM [inhibitor, single point]",–,inconclusive: 65.1% [activator]
